In patent EP0021685A1, “A-30912 H-type antibiotics, their preparation and use” (ELI LILLY AND COMPANY, priority 1979, dated 1981):

Tested on: Candida albicans
Experiment: Disc-diffusion antifungal test
Settings: pads dipped in solutions containing 10 mg/ml of test compound
Experimental: The A-30912H-type antibiotics are antifungal agents which are especially active against Candida species. This invention relates further, therefore, to a method of treating fungal infections in mammals which comprises administering to the mammal an effective amount of an A-30912H-type antibiotic. In these tests the antifungal activity was measured by the disc-diffusion method (6-mm pads were dipped in solutions containing test compounds; pads were placed on agar plates seeded with the test organism). Table III gives the minimal inhibitory concentration (MIC) per disc at which A-30912H inhibited the test organism.
Table IV gives the diameters (in mm) of the observed zones of inhibition for typical A-30912H-type derivatives. The test compounds were compounds of formula I wherein R^1 is linoleoyl; the pads were (dipped in solutions containing 10 mg/ml of test compound).

| SMILES | Zone diameters (mm) |
| --- | --- |
| CCCCC/C=C\C/C=C\CCCCCCCC(=O)N[C@H]1C[C@@H](O)[C@@H](OCCCCCC)NC(=O)[C@@H]2[C@@H](O)[C@@H](C)CN2C(=O)[C@H]([C@@H](C)O)NC(=O)[C@H]([C@H](O)[C@@H](O)c2ccc(O)cc2)NC(=O)[C@@H]2C[C@@H](O)CN2C(=O)[C@H]([C@@H](C)O)NC1=O [R = n-hexyl] | 14 |
| CCCCC/C=C\C/C=C\CCCCCCCC(=O)N[C@H]1C[C@@H](O)[C@@H](OCCC)NC(=O)[C@@H]2[C@@H](O)[C@@H](C)CN2C(=O)[C@H]([C@@H](C)O)NC(=O)[C@H]([C@H](O)[C@@H](O)c2ccc(O)cc2)NC(=O)[C@@H]2C[C@@H](O)CN2C(=O)[C@H]([C@@H](C)O)NC1=O [R = n-propyl] | 16 |
